# Experimental data: the RNAGym collection of RNA variant scans (doi:10.7554/elife.90254)
# Read counts are not given, so values of variants with three or more changes are uncertain.
# B1: LINE1-mini (parent)
# chain: GGCAGAGCUCAACACAGCGUGGCAAAGUGGCUGUGGCUAGACUGCC
# Variants of: B1
# Assay: self-cleavage, relative activity (ratio to wild type); higher = more cleavage; in vitro, sequencing; the parent is a self-cleaving ribozyme
row,Variant,self-cleavage
1,GGCAGAGCUCAACACAGGGUGUCAAAGUGGAUGUGGCUAGACUGCC,0.1
2,GGCAGAGCUCAACACAGUGUGGUAAAGUGGCUGAGGCUAGACCGCC,0.05
3,GGCAGAGCUCAACACAGGGUGGCAAAGUGGCUGUGGCUAGACUCCU,0.01
4,GGCAGAGCUCAACACAGGGUGGCAAAGUGGCUGUGGCAUGACUGCC,0.07
5,GGCAGAGCUCAACACAGUGUGGUAUAGUGCCUGUGGCUAGACUGCC,1.27
6,GGCAGAGCUCAACACAGUAUGGCAAAGUCGCUGUGGCUAGAUUGCC,0.11
7,GGCAGAGCUCAACACAGGGGGGAAAAGUUGCUGUGGCUAGAGUGCC,0.09
8,GGCAGAGCUCAACACAGGGCGGCAAAGUGGCUGUGGCUAGACUCCC,0.03
9,GGCAGAGCUCAACACAGUGUGGCAAAGUGGCUGUGGGUAGUCAGCC,0.02
10,GGCAGAGCUCAACACAGGGUGGCAAAGUGGCUGUGGCUAGACCUCC,0
11,GGCAGAGCUCAACACAGUGUGGAAAAGUGGUUGUGGAUAGACUGCC,0.02
12,GGCAGAGCUCAACACAGGGUGUCAAAGUGGCUGUGGCUAGACUGUC,0.21
13,GGCAGAGCUCAACACAGGGUGGCAAAGUUGCCGUGGCUUGACUGCC,0.05
14,GGCAGAGCUCAACACAGUGUAGCAAAGUGGCUGUGUCUAGGCUGCC,0.13
15,GGCAGAGCUCAACACAGUGUGGCAAUGUCGCUGUGGCUAGACUGCU,0.27
16,GGCAGAGCUCAACACAGUGUGGGAAUUUGGCUGUGGAUAGACUGCC,0.02
17,GGCAGAGCUCAACACAGUGUGGCAUAGUUGCUGUGGCUAGACUGCC,0.35
18,GGCAGAGCUCAACACAGGGUGGCAAAGUGGCUUUGGCUAUACUGCC,0.07
19,GGCAGAGCUCAACACAGUAUGGCAAGGUGGCUGUGGCUAGACUGCC,2.66

row,Variant,self-cleavage
1,GGCAGAGCUCAACACAGGGUGGCAAACUAGCUGUGGCUAGACUGCC,0.03
2,GGCAGAGCUCAACACAGGGUGGCAAAGUGUCUGAGGCUAGACUGCC,0.03
3,GGCAGAGCUCAACACAGGGUGGCAAAGUGCGUGUGGCUAGACUGCC,0.03
4,GGCAGAGCUCAACACAGGGUGGCAAAGGGGCUGAGGCUAGACUGCC,0.03
5,GGCAGAGCUCAACACAGGGUGGCAAAAUGGCUGUGUCUAAACUGCC,0.06
6,GGCAGAGCUCAACACAGGGAGGCAAGGUGGCUGUGGCUAGACUGCC,0.11
7,GGCAGAGCUCAACACAGGGUGGCAAAGUGGCUGUCGCUCGACUGCC,0.05
8,GGCAGAGCUCAACACAGGGUGGCAAAGUGGCUGUGGCUAGACAGCG,0.01
9,GGCAGAGCUCAACACAGUGUUAGAAAGUGGCUGUGGCUAGACUGCC,0.24
10,GGCAGAGCUCAACACAGUGUUGCGAAGUGGCUGAGGGUAGACUGCC,0
11,GGCAGAGCUCAACACAGGGAGUCAAAUUGAUUGUGGCUAGACUGCC,0.11
12,GGCAGAGCUCAACACAGGGUGGCAAAGUGGCUGUUGGUAGACUGCC,0.06
13,GGCAGAGCUCAACACAGGGUGCCAAAGUGACUGUGGCUAGACUGCC,0.87
14,GGCAGAGCUCAACACAGUUUAGCAAAGUGGCUGUGGCAAGACUGCC,1.21
15,GGCAGAGCUCAACACAGUAUAGCAUAGUGGGUGUGGCUGGACUGCC,0.01
16,GGCAGAGCUCAACACAGUGUAGCAAAGUGGCUGUGGCUAGCUUGAU,0.07
17,GGCAGAGCUCAACACAGGGAGGCAAAGUUGCUGUGGGUAGACUGCC,0.01
18,GGCAGAGCUCAACACAGUGUCGCAAUGUGGCUGUGGCUAGACUGCC,1.33
19,GGCAGAGCUCAACACAGGGUGGCAAAAUGGCUGUGGCUUGACUGCC,0.09

row,Variant,self-cleavage
1,GGCAGAGCUCAACACAGUGUGGCAAAGUGGCUGUGGCUAGACUGGA,0.33
2,GGCAGAGCUCAACACAGGGUGCCAAAGUGGCUGUUGCUGGACUGCC,0.07
3,GGCAGAGCUCAACACAGGGUGUCAAACUGGCUGUGGCUAGACUACC,0.23
4,GGCAGAGCUCAACACAGUCUGCCAAAGUGGCUGUGGCUAGACUGCC,0.32
5,GGCAGAGCUCAACACAGUGUGGCAUAGUGGCUGUGGCUAGACUCCC,0.25
6,GGCAGAGCUCAACACAGUGUGGCAACGUGGCUGUGGUUAGUCUGCC,0.04
7,GGCAGAGCUCAACACAGUGUGGCAAAGUGGUUGUGGCUAGACUGAC,0.02
8,GGCAGAGCUCAACACAGUGUGGCUAAGUAACUUUUGCUAGACUUCC,0.19
9,GGCAGAGCUCAACACAGUGUGGCAAAGUGGGUGUGCCUAGACUGUC,0.02
10,GGCAGAGCUCAACACAGGGUGGCAAAGCGGCUGUGGCUAGAAUGCC,0.12
11,GGCAGAGCUCAACACAGUGUGGUAAAGUGGCUGUGGCUAGACUGCU,1.04
12,GGCAGAGCUCAACACAGUGUGGGAAAGUGGUUAUGGCUAGACUGCC,0.02
13,GGCAGAGCUCAACACAGUACGGCAACGUGGCGGGGGCUAGACUGCC,0.03
14,GGCAGAGCUCAACACAGUGUGGCAACGUGGCUGUGAUUAUACUGCC,0.21
15,GGCAGAGCUCAACACAGGGAGGCAAAUUGGCUGUAGCUAGACUGCC,0.03
16,GGCAGAGCUCAACACAGUGUGGCAAUGUGGUUGUUGCUAGACUGCA,0.02
17,GGCAGAGCUCAACACAGGGUGGCAAAGUGGCUUUGGCCAGACUGCC,0.03
18,GGCAGAGCUCAACACAGGGUGCCAAAGUGGCUGUGGCUAGAGUGCC,0.06
